Results published in the antibiotic and cytotoxicity screens of Wong et al. (2023).
The other results are listed elsewhere or left out.

What was measured:
[1] = test system: HSkMC (human skeletal muscle cells); assay: cytotoxicity call (relative viability < 0.9); settings: 10 µM
[2] = test system: HepG2; assay: cytotoxicity call (relative viability < 0.9); settings: 10 µM
[3] = test system: S. aureus RN4220; assay: growth inhibition call (relative growth <= 0.2); settings: 50 µM

Compound | cytotoxicity call [1] | cytotoxicity call [2] | growth inhibition call [3]
COc1ccc(NC(=O)N(C)C[C@H]2Oc3ccc(NS(C)(=O)=O)cc3CC(=O)N([C@H](C)CO)C[C@@H]2C)cc1 | inactive | inactive | inactive
Cc1noc(C)c1S(=O)(=O)Nc1ccc2c(c1)C(=O)N([C@H](C)CO)C[C@H](C)[C@@H](CN(C)C(=O)Nc1ccc(F)cc1)OCCCC[C@@H](C)O2 | inactive | inactive | inactive
COc1ccccc1C#Cc1cnc2c(c1)C(=O)N([C@@H](C)CO)C[C@@H](C)[C@H](CN(C)C(=O)CN(C)C)O2 | inactive | inactive | inactive
CC(=O)N1C[C@@H]2CN(c3ncccn3)CC[C@H]2C1 | inactive | inactive | inactive
N[C@@H](CC(=O)O)c1cccc(O)c1 | inactive | inactive | inactive
C[C@@H]1CN([C@@H](C)CO)C(=O)c2cccc(NC(=O)c3ccncc3)c2O[C@@H]1CN(C)S(=O)(=O)c1cn(C)cn1 | inactive | inactive | inactive
C[C@@H]1CCCCO[C@@H](CN(C)CC2CC2)[C@@H](C)CN([C@H](C)CO)C(=O)c2cc(NC(=O)Nc3ccc4c(c3)OCO4)ccc2O1 | inactive | inactive | inactive
COc1ccc(S(=O)(=O)N(C)C[C@H]2Oc3ccc(NS(=O)(=O)c4cccs4)cc3C(=O)N([C@H](C)CO)C[C@H]2C)cc1 | inactive | inactive | inactive
COc1ccc(S(=O)(=O)Nc2ccc3c(c2)CC(=O)N([C@@H](C)CO)C[C@H](C)[C@H](CN(C)CC2CC2)O3)cc1 | inactive | inactive | inactive
C[C@H](CO)N1C[C@H](C)[C@@H](CN(C)C(=O)Nc2ccc(C(F)(F)F)cc2)Oc2ccc(NC(=O)Nc3ccc4c(c3)OCO4)cc2C1=O | inactive | inactive | inactive
Cc1noc(C)c1NC(=O)N(C)C[C@H]1OCCCC[C@H](C)Oc2ccc(NS(=O)(=O)c3cccs3)cc2C(=O)N([C@@H](C)CO)C[C@H]1C | inactive | inactive | inactive
C[C@@H]1CN([C@H](C)CO)C(=O)c2cc(NC(=O)Cn3cnnn3)ccc2O[C@H]1CN(C)S(=O)(=O)c1ccccc1 | inactive | inactive | inactive
O=C(C[C@H]1C[C@H]2c3cc(NC(=O)c4ccc5c(c4)OCO5)ccc3O[C@H]2[C@@H](CO)O1)NCCN1CCCCC1 | inactive | inactive | inactive
COc1ccc(COC(=O)[C@H]2[C@H]3C(=O)N(Cc4ccc5c(c4)OCO5)C[C@]34C=C[C@]2(Br)O4)cc1 | inactive | inactive | inactive
C[C@@H]1CN([C@H](C)CO)C(=O)CCCn2nncc2CO[C@@H]1CN(C)C(=O)Nc1ccc(C(C)(C)C)cc1 | inactive | inactive | inactive
Cc1noc(C)c1NC(=O)Nc1ccc2c(c1)CC(=O)N([C@@H](C)CO)C[C@H](C)[C@@H](CN(C)S(=O)(=O)c1cn(C)cn1)O2 | inactive | inactive | inactive
COc1ccc(S(=O)(=O)N(C)C[C@@H]2Oc3ccc(NS(=O)(=O)c4ccc(C)cc4)cc3C(=O)N([C@@H](C)CO)C[C@H]2C)cc1 | inactive | inactive | inactive
Cc1nnc(N)s1 | inactive | inactive | inactive
O=C(NO)c1ccc(C(=O)N/N=C/c2cccc(B(O)O)c2)cc1 | inactive | inactive | inactive

Compound | cytotoxicity call [1] | cytotoxicity call [2] | growth inhibition call [3]
COc1ccc(NC(=O)Nc2ccc3c(c2)C(=O)N([C@H](C)CO)C[C@@H](C)[C@@H](CN(C)Cc2ccc(C(=O)Nc4ccccc4N)cc2)O3)cc1 | inactive | inactive | inactive
C[C@H]1CN([C@@H](C)CO)S(=O)(=O)c2ccc(C#Cc3cccc(F)c3)cc2O[C@@H]1CN(C)C(=O)CN1CCOCC1 | inactive | inactive | inactive
CC(Cc1cccc(C(F)(F)F)c1)NCCOC(=O)c1ccccc1.Cl (stereo unspecified) | inactive | inactive | inactive
C[C@](N)(Cc1ccc(O)cc1)C(=O)O | inactive | inactive | inactive
COC(=O)c1cn(CC(N)=O)c2ccccc12 | inactive | inactive | inactive
C[C@H](CO)N1C[C@H](C)[C@H](CN(C)S(=O)(=O)c2ccc(Cl)cc2)Oc2ccc(NS(=O)(=O)c3cn(C)cn3)cc2C1=O | inactive | inactive | inactive
C[C@H](CO)N1C[C@H](C)[C@@H](CN(C)CC2CC2)OCCCC[C@H](C)Oc2ccc(NC(=O)CCC(F)(F)F)cc2C1=O | inactive | inactive | inactive
COCC(=O)N1C[C@@H](C)[C@@H](OC)CN(C)C(=O)c2ccc(NC(=O)Nc3ccccc3)cc2OC[C@H]1C | inactive | inactive | inactive
CCCNC(=O)Nc1ccc2c(c1)C(=O)N(C)C[C@H](OC)[C@@H](C)CN(C(=O)C1CCOCC1)[C@H](C)CO2 | inactive | inactive | inactive
COc1ccc(S(=O)(=O)N[C@H]2C=C[C@H](CC(=O)N3CCC(Cc4ccccc4)CC3)O[C@H]2CO)cc1 | inactive | inactive | inactive
C[C@@H]1CCCCO[C@@H](CN(C)S(=O)(=O)c2ccc(Cl)cc2)[C@@H](C)CN([C@H](C)CO)C(=O)c2cc(NS(=O)(=O)c3ccc(F)cc3)ccc2O1 | inactive | inactive | inactive
C/C(=N\N)c1c(C)cc(C)[nH]c1=O | inactive | inactive | inactive
COCc1cc(C)nc2n[nH]c(N)c12 | inactive | active | inactive
Cc1noc(C)c1NC(=O)N(C)C[C@@H]1Oc2cc(C#CCN(C)C)ccc2S(=O)(=O)N([C@H](C)CO)C[C@@H]1C | inactive | inactive | inactive
C[C@@H]1CN([C@@H](C)CO)C(=O)c2cc(N(C)C)ccc2O[C@@H](C)CCCCO[C@@H]1CN(C)S(C)(=O)=O | inactive | inactive | inactive
Cc1noc(C)c1NC(=O)N(C)C[C@H]1OCCCC[C@@H](C)Oc2ccc(NC(=O)c3ccccc3)cc2C(=O)N([C@@H](C)CO)C[C@@H]1C | inactive | inactive | inactive
O=C(CCCCCC(=O)N/N=C/[C@H](O)[C@@H](O)[C@@H](O)[C@H](O)CO)NO | inactive | inactive | inactive
Nc1ccn[nH]1 | inactive | inactive | inactive
CCCN(C)C[C@H]1Oc2cc(C#Cc3cccc(OC)c3)ccc2S(=O)(=O)N([C@H](C)CO)C[C@H]1C | inactive | inactive | inactive

Compound | cytotoxicity call [1] | cytotoxicity call [2] | growth inhibition call [3]
C[C@H]1CN([C@@H](C)CO)S(=O)(=O)c2ccc(-c3cncnc3)cc2O[C@H]1CN(C)C(=O)NC1CCCC1 | inactive | inactive | inactive
Cc1cncc2cccc(S(=O)(=O)NCCCN(C/C=C/c3ccc(Br)cc3)C/C=C/c3ccc(Br)cc3)c12 | inactive | inactive | inactive
O=C(C[C@@H]1CC[C@@H](NC(=O)c2ccc(F)cc2)[C@H](CO)O1)NCc1ccncn1 | inactive | inactive | inactive
Cc1ccc(S(=O)(=O)Nc2ccc3c(c2)C(=O)N([C@H](C)CO)C[C@H](C)[C@@H](CN(C)C(=O)Nc2cccc4ccccc24)O3)cc1 | inactive | inactive | inactive
O=C(C[C@H]1C=C[C@@H](NC(=O)c2ccncc2)[C@@H](CO)O1)NCc1ccncn1 | inactive | inactive | inactive
O=C(C1=C[C@H](c2ccc(Br)cc2)C[C@H](OCc2ccc(CO)cc2)O1)N1CCCCCCC1 | inactive | inactive | inactive
O=C(C[C@@H]1CC[C@H]2[C@@H](COC[C@@H](O)CN2S(=O)(=O)c2ccccc2)O1)NCc1ccc(-c2ccccc2)cc1 | inactive | inactive | inactive
C[C@H](CO)N1C[C@H](C)[C@H](CN(C)C(=O)NC2CCCCC2)Oc2c(NC(=O)Nc3ccc(C(F)(F)F)cc3)cccc2C1=O | inactive | active | inactive
COc1ccc(S(=O)(=O)N(C)C[C@@H]2Oc3ccc(NC(=O)Cn4cnnn4)cc3CC(=O)N([C@H](C)CO)C[C@H]2C)cc1 | inactive | inactive | inactive
CC(C)NC(=O)N(C)C[C@@H]1OCCCC[C@@H](C)Oc2ccc(NC(=O)C3CCCCC3)cc2C(=O)N([C@@H](C)CO)C[C@H]1C | inactive | inactive | inactive
COc1ccc(NC(=O)N(C)C[C@H]2Oc3ccc(NC(=O)CCCCCC(=O)Nc4ccccc4N)cc3C(=O)N([C@@H](C)CO)C[C@@H]2C)cc1 | inactive | inactive | inactive
COCCOC(=O)N1C(=O)[C@@]2(c3cc(C#CCC(C(=O)OC)C(=O)OC)ccc31)[C@H](C(=O)Nc1nc3ccccc3s1)[C@H]1C(=O)O[C@H](c3ccccc3)[C@H](c3ccccc3)N1[C@@H]2c1ccccc1OCCO | inactive | inactive | inactive
COc1ccc(NC(=O)N(C)C[C@@H]2Oc3ccc(NC(=O)CCN4CCOCC4)cc3C(=O)N([C@@H](C)CO)C[C@H]2C)cc1 | inactive | inactive | inactive
COc1ccc(S(=O)(=O)N(C)C[C@H]2Oc3c(NS(=O)(=O)c4cccs4)cccc3C(=O)N([C@H](C)CO)C[C@@H]2C)cc1 | inactive | inactive | inactive
Cc1ccc(S(=O)(=O)N(C)C[C@@H]2Oc3c(NS(C)(=O)=O)cccc3C(=O)N([C@H](C)CO)C[C@@H]2C)cc1 | inactive | inactive | inactive
c1ccc2[nH]c(-c3ccncc3)nc2c1 | inactive | inactive | inactive
C[C@H](CO)N1C[C@H](C)[C@@H](CN(C)S(=O)(=O)c2ccccc2)Oc2c(NC(=O)c3cnccn3)cccc2C1=O | inactive | inactive | inactive
Cc1noc(C)c1NC(=O)Nc1ccc2c(c1)C(=O)N([C@H](C)CO)C[C@@H](C)[C@@H](CN(C)CC1CCCCC1)OCCCC[C@H](C)O2 | inactive | inactive | inactive
COc1ccc(NC(=O)Nc2ccc3c(c2)C(=O)N([C@H](C)CO)C[C@H](C)[C@H](CN(C)C(=O)C2CCCCC2)OCCCC[C@H](C)O3)cc1 | inactive | inactive | inactive
